Source: publication PMC6919601, “Identification of Plasmodium dipeptidyl aminopeptidase allosteric inhibitors by high throughput screening” (PLoS ONE, 2019)
Screen size: about 110,000 compounds; about 230 (0.21%) showed an effect of 50% or more. The list shows a part of the results.

Biological target: DPAP1 (Plasmodium falciparum, UniProt Q8IIJ9)
Assay: primary screen, percent inhibition; read by cleavage of a fluorogenic dipeptide substrate; higher = more effect of the substance
Parameters: species or system P. falciparum D10 trophozoite lysates; single well
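Further: 30 min substrate incubation versus DMSO and 10 µM JCP410 controls.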

Sequence of DPAP1 (Q8IIJ9 whole entry, looked up): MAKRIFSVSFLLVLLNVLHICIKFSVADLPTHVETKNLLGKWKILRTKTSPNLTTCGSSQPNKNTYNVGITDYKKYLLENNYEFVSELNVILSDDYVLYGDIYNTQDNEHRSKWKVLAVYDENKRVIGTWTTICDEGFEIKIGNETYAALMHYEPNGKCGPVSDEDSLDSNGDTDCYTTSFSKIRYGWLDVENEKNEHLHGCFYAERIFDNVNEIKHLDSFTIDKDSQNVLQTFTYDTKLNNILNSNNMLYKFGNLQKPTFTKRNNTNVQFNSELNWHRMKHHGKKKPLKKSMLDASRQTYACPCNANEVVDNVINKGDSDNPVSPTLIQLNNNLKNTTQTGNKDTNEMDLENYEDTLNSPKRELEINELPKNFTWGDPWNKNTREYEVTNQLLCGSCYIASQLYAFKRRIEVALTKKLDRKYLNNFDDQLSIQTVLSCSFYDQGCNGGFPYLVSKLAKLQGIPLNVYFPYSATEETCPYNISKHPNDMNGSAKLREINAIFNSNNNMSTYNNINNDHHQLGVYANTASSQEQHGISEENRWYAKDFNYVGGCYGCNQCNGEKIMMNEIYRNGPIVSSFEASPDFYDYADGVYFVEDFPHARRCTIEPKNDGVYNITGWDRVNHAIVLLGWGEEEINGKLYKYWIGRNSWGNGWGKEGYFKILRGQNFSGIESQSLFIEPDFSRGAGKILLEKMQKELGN

With `CCCn1c(-c2ccc(Br)cc2)cn2c3c(=O)n(C)c(=O)n(C)c3nc12` as the compound, how does the “% Inhibition @ 10 uM” value read?
Its value is -3.45%.

Which “% Inhibition @ 10 uM” value does the source give for `COc1cc(C2C(C#N)=C(C)N=C3CC(c4ccccc4)CC(O)=C32)cc(OC)c1OC` (centres unmarked) here?
Its value is 15.8%.

`NCCNCC1COC2(CCCC2)O1` (centres unmarked) was tested. Which “% Inhibition @ 10 uM” value did it give?
Its value is -9.49%.

For `Cc1cccc(C2C(C#N)=C(N)OC3=C2C(=O)CC(c2ccccc2)C3)c1` (centres unmarked), which “% Inhibition @ 10 uM” value is on record?
Its value is 7.59%.

With `CS(=O)(=O)N(CCc1ccccc1)CC(=O)N1CCN(c2ccccc2)CC1` as the compound, how does the “% Inhibition @ 10 uM” value read?
Its value is -7.17%.

With `C=CCN1C(=O)S/C(=C/c2cccc(C)c2)C1=O` as the compound, how does the “% Inhibition @ 10 uM” value read?
Its value is 1.92%.

With `Cc1cccc(OCCn2c(C(C)O)nc3ccccc32)c1` (centres unmarked) as the compound, how does the “% Inhibition @ 10 uM” value read?
Its value is 2.73%.

With `Cn1c2c(c(=O)[nH]c1=O)C(c1ccsc1)C1=C(O)c3ccccc3C1=N2` (centres unmarked) as the compound, how does the “% Inhibition @ 10 uM” value read?
The value was 4.08%.

For `Cc1cccc(/C(O)=C/C=N/c2ccc(Cl)cn2)c1`, which “% Inhibition @ 10 uM” value is on record?
Its value is -9.55%.

`Clc1cnc2[nH]c(-c3cccnc3)nc2c1` was tested. Which “% Inhibition @ 10 uM” value did it give?
The value was -6.08%.

For `CC(C)(Oc1ccc(Cl)cc1)C(=O)N1CCc2ccccc2C1`, which “% Inhibition @ 10 uM” value is on record?
Its value is 0.565%.

Which “% Inhibition @ 10 uM” value does the source give for `OCCCc1nc2ccccc2n1Cc1ccccc1F` here?
The value was -0.28%.

Which “% Inhibition @ 10 uM” value does the source give for `CCC(C)n1c(=O)c2sccc2n2c(CCCC(=O)NCc3ccc(C)cc3)nnc12` (centres unmarked) here?
Its value is -5.95%.

`COc1cc(C(=O)Nc2ccc(S(=O)(=O)N3CCc4ccccc43)cc2)cc(OC)c1OC` was tested. Which “% Inhibition @ 10 uM” value did it give?
Its value is -2.19%.

`Cc1ccc2nc(NC(=O)CCn3cccc3)sc2c1` was tested. Which “% Inhibition @ 10 uM” value did it give?
Its value is -4.24%.

For `COc1ccc(CC(=O)N(Cc2ccccc2)Cc2ccccc2)cc1`, which “% Inhibition @ 10 uM” value is on record?
Its value is -1.38%.

For `CCOC(=O)N1CCN(C(=O)c2cc(S(=O)(=O)N3CCCC3)cn2C)CC1`, which “% Inhibition @ 10 uM” value is on record?
Its value is -3.42%.

How did the “% Inhibition @ 10 uM” value turn out when `C=CCN1C(=O)C(O)(CC(=O)c2ccc(OC)cc2OC)c2ccccc21` (centres unmarked) was run?
Its value is -4.61%.

Which “% Inhibition @ 10 uM” value does the source give for `CC1CCN(CC(O)Cn2ccc3ccccc32)CC1` (centres unmarked) here?
Its value is -1.72%.

How did the “% Inhibition @ 10 uM” value turn out when `Cc1cc(Br)ccc1OCC(=O)Nc1ccc(S(=O)(=O)N2CCCCC2)cc1` was run?
The value was -2.67%.

For `CCCCN(C)Cc1ccc2c(c1)c1ccccc1n2CC`, which “% Inhibition @ 10 uM” value is on record?
Its value is -0.603%.

Which “% Inhibition @ 10 uM” value does the source give for `O=C(CSCc1cccc2ccccc12)Nc1ccccc1` here?
The value was -0.996%.

With `O=C(NCc1ccccc1Cl)C(=O)NCC(c1cccnc1)N1CCOCC1` (centres unmarked) as the compound, how does the “% Inhibition @ 10 uM” value read?
Its value is -3.51%.

For `CCC(C)NC(=O)C1=CC(c2ccc(C)cc2)=NS(=O)(=O)N1C` (centres unmarked), which “% Inhibition @ 10 uM” value is on record?
Its value is 5.48%.

`CC(C)c1ccc(C2C(C#N)=C(N)SC(N)=C2C#N)cc1` was tested. Which “% Inhibition @ 10 uM” value did it give?
The value was 46.7%.

How did the “% Inhibition @ 10 uM” value turn out when `O=C(Cn1nc(C(F)(F)F)cc1C1CC1)Nc1ccc(S(=O)(=O)N2CCCC2)cc1` was run?
Its value is 1.38%.

With `O=C(c1nc2ncccn2n1)N1CCN(C(c2ccccc2)c2ccccc2)CC1` as the compound, how does the “% Inhibition @ 10 uM” value read?
Its value is -5.41%.

Which “% Inhibition @ 10 uM” value does the source give for `Cc1ccc(C(=O)N2CCC(Cc3ccccc3)CC2)cc1[N+](=O)[O-]` here?
Its value is 1.38%.

For `CCn1c(C)nc2cc(Cl)ccc21`, which “% Inhibition @ 10 uM” value is on record?
The value was -3.55%.

`CCCOC(=O)c1cc(-c2ccc(/C=C3\C(=O)N(CCO)C(=O)C(C#N)=C3C)o2)ccc1Cl` was tested. Which “% Inhibition @ 10 uM” value did it give?
Its value is -8.88%.

`Cc1ccc(S(=O)(=O)N(C)CC(=O)NCc2ccco2)cc1` was tested. Which “% Inhibition @ 10 uM” value did it give?
The value was 0.235%.

`COc1ccc(S(=O)(=O)N(CC(=O)Nc2cccc(F)c2)c2ccc(F)cc2)cc1OC` was tested. Which “% Inhibition @ 10 uM” value did it give?
Its value is -3.43%.

Which “% Inhibition @ 10 uM” value does the source give for `CCOc1ccc2oc(C)c(C(=O)O)c2c1` here?
The value was -0.357%.

For `CC(NC(=O)C1CCCN(S(=O)(=O)c2cccs2)C1)c1ccccc1` (centres unmarked), which “% Inhibition @ 10 uM” value is on record?
Its value is 4.07%.

For `COC(=O)c1ccc(C2C(C(=O)OC(C)C)=C(C)N=C3SCCC(=O)N32)cc1` (centres unmarked), which “% Inhibition @ 10 uM” value is on record?
The value was -5.63%.

How did the “% Inhibition @ 10 uM” value turn out when `CCN(CC)C(=O)C1CCCN(Cc2ccc3c(c2)c2ccccc2n3CC)C1` (centres unmarked) was run?
Its value is -1.07%.

How did the “% Inhibition @ 10 uM” value turn out when `CC(=O)c1ccc(N2CCN(C)CC2)c(F)c1` was run?
Its value is -3.72%.

With `COc1cc(CN2CCN(c3cccc(C(F)(F)F)c3)CC2)cc(OC)c1` as the compound, how does the “% Inhibition @ 10 uM” value read?
The value was -0.856%.

With `COc1ccc(Cl)cc1N1C(=O)CC(N2CCN(C)CC2)C1=O` (centres unmarked) as the compound, how does the “% Inhibition @ 10 uM” value read?
The value was -6.68%.

Which “% Inhibition @ 10 uM” value does the source give for `COc1cccc(OC)c1C(=O)Nc1ccc(Oc2ccccc2)cc1` here?
The value was -1.36%.

With `COc1ccc(C2C3=C(O)CC(c4ccco4)CC3=Nc3nc4ccccc4n32)cc1` (centres unmarked) as the compound, how does the “% Inhibition @ 10 uM” value read?
Its value is -3.53%.

`CCN(c1ccccc1)S(=O)(=O)c1ccc(NC(=O)c2ccccc2Br)cc1` was tested. Which “% Inhibition @ 10 uM” value did it give?
The value was 0.11%.

With `CC1CCN(c2ncnc3c2oc2ccccc23)CC1` as the compound, how does the “% Inhibition @ 10 uM” value read?
Its value is 0.0265%.

For `Cn1cnc2c1c(=O)n(CNc1ccccc1)c(=O)n2C`, which “% Inhibition @ 10 uM” value is on record?
The value was -1.88%.

Which “% Inhibition @ 10 uM” value does the source give for `CC1=CN2C(=O)C(NC(=O)COc3ccccc3)(C(F)(F)F)N=C2S1` (centres unmarked) here?
The value was 0.221%.

For `Clc1ccc(-c2noc3ncnc(N(Cc4ccco4)C4CCCC4)c23)cc1`, which “% Inhibition @ 10 uM” value is on record?
The value was -0.704%.

How did the “% Inhibition @ 10 uM” value turn out when `COc1ccc(/C=C/c2nc(=O)c(-c3ccccc3)c(C)o2)cc1` was run?
The value was 5.17%.

`CNc1oc(-c2ccc([N+](=O)[O-])cc2)nc1C#N` was tested. Which “% Inhibition @ 10 uM” value did it give?
The value was -6.68%.

For `O=C(NCCc1c[nH]c2ccc(OCc3ccccc3)cc12)C1CC1`, which “% Inhibition @ 10 uM” value is on record?
The value was -1.86%.

How did the “% Inhibition @ 10 uM” value turn out when `CC1CCCCC1Nc1ncccn1` (centres unmarked) was run?
Its value is 1.27%.
